Measurements from the supplement of paper PMC12340641.
The full ranking holds about 1,000 compounds; the median of “relative growth in counter assay (no AraC = 100%, AraC + DMSO = 0%)” is about -1.1, and the highest 2% start at about 20. The list shows a part of the results.

Tested on: HEK293FT dCK*-only
Assay: relative growth in counter assay (no AraC = 100%, AraC + DMSO = 0%); higher = more growth rescue independent of IKZF1
Details: compound concentration: 5 uM; AraC concentration: 0.3 uM; overnight pretreatment + 4 days AraC
Method: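 Growth recovery screen of the molecular-glue-like (Specs) library. HEK293FT cells expressing a dCK*-IKZF1 fusion (primary) or dCK* alone (counter) were pretreated overnight with compound at 5 uM, then given 0.3 uM AraC for 4 days. Hoechst nuclei were counted by imaging. Primary: normalised to pomalidomide (100%) and DMSO (0%), mean of 2 replicates. Counter: normalised to no-AraC (100%) and AraC+DMSO (0%), single replicate.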

Point of comparison: `CC(=O)N1CCC(Cc2cccc(Nc3nccs3)n2)CC1`, “relative growth in counter assay” value -8.99%. Against it:
- Cc1nc(Nc2cccc(C3CCCN3C(=O)CCOc3cccc(F)c3)n2)sc1C (configuration not stated) — higher, 5.41%
- O=C(C1CCCCC1)N1CCOC(c2cccc(Nc3nccs3)n2)C1 (configuration not stated) — higher, -5.66%
- O=C1CCC(N2C(=O)c3cccc(N4CCN(C5CCC(C(=O)O)CC5)CC4)c3C2=O)C(=O)N1 (configuration not stated) — higher, 2.79%
- O=C(Nc1ccc(S(=O)(=O)Nc2ncccn2)cc1)C1COc2ccccc2O1 (configuration not stated) — higher, -0.31%
- Cc1nc(Nc2cccc(C3CCN(CC(=O)NCc4ccccn4)CC3)n2)sc1C — higher, -1.26%
- O=C(/C=C/c1ccccc1)N1CCCC(c2csc(Nc3ccccn3)n2)C1 (configuration not stated) — higher, 34.8%
- O=C(C1CCCCC1)N1CCOC(c2cccc(Nc3ncc(Cc4ccccc4Cl)s3)n2)C1 (configuration not stated) — higher, 3.29%
- O=S(=O)(Nc1ccc(S(=O)(=O)Nc2ncccn2)cc1)c1ccc(F)cc1 — higher, -1.97%
- Cc1ccc(Cl)cc1NC(=O)CSc1nnc2c(n1)[nH]c1c(C)ccc(C)c12 — higher, 5.08%
- Cc1csc(Nc2cccc(C3CN(C(=O)CCCc4ccc(F)cc4)CCO3)n2)n1 (configuration not stated) — higher, 36.2%
- Nc1nc(N)c2ncn([C@@H]3CCC[C@@H](N)[C@H]3O)c2n1 — higher, -0.08%
- O=C(CSc1nc2ccccc2n1Cc1ccccc1)Nc1ccccn1 — higher, -0.97%
- Cc1nc(Nc2cccc(C3CCN(C(=O)c4n[nH]c5c4CCCC5)CC3)n2)sc1C — higher, 14%
- CC(=O)Nc1ccc(S(=O)(=O)Nc2ccccn2)cc1 — higher, -7.51%
- Cc1cnc(Nc2cccc(C(CO)C3CCN(C(=O)c4cccc(Cl)c4F)CC3)n2)s1 (configuration not stated) — higher, -1.22%
- Cc1cnc(Nc2cccc(C3CN(C(=O)Cn4ccnc4)CCO3)n2)s1 (configuration not stated) — higher, -7.8%
- CCCN1CC(C(=O)N2CCC(c3cccc(Nc4ncc(C)s4)n3)CC2)CC1=O (configuration not stated) — higher, -6.33%
- O=C(Nc1ccc(S(=O)(=O)Nc2ncccn2)cc1)c1cccc(Br)c1 — lower, -11.3%
- Cc1cc(C)nc(NS(=O)(=O)c2ccc(NC(=O)/C=C/c3ccccc3)cc2)n1 — higher, 3.78%
- Cc1cc(C)nc(NS(=O)(=O)c2ccc(NC(=O)c3ncoc3-c3ccccc3)cc2)n1 — higher, 1.41%
- COc1cc(NS(=O)(=O)c2ccc(NC(=O)c3ccc(OC)c(OC)c3)cc2)nc(OC)n1 — higher, -4.74%
- Cc1cnc(Nc2cccc(C3CCN(C(=O)C4C5C=CC(C5)C4C(=O)NCC(C)C)CC3)n2)s1 (configuration not stated) — lower, -18.4%
- Cc1cc(C)c(S(=O)(=O)Nc2ccc(S(=O)(=O)Nc3ncccn3)cc2)c(C)c1 — higher, -5.1%
- CCc1ccc(OCC(=O)Nc2ccc(S(=O)(=O)Nc3ccccn3)cc2)cc1 — higher, 4.87%
- Cc1cc(C)nc(NS(=O)(=O)c2ccc(/N=C3/NC(=O)CS3)cc2)n1 — higher, 5.28%
- CCOc1ccccc1C(=O)Nc1ccc(S(=O)(=O)Nc2nccc(C)n2)cc1 — lower, -22.1%
- CCCc1cnc(Nc2cccc(C3CCN(C(=O)C4COCCN4)CC3)n2)s1 (configuration not stated) — lower, -24.3%
- Cc1cnc(Nc2cccc(C3CN(C(=O)CCn4cnc5ccccc54)CCO3)n2)s1 (configuration not stated) — higher, 4.68%
- Cc1cnc(Nc2cccc(C3CN(C(=O)CCOc4cccc(F)c4)CCO3)n2)s1 (configuration not stated) — higher, 19.7%
- Cc1ccnc(NS(=O)(=O)c2ccc(NC(=O)c3ccco3)cc2)n1 — higher, 3.62%
- CC(C)C(=O)N1CCOC(c2cccc(Nc3nccs3)n2)C1 (configuration not stated) — higher, -3.79%
- CCCc1cnc(Nc2cccc(C3CCN(C(=O)[C@@H]4CCCCN4)CC3)n2)s1 — lower, -21.3%
- COc1nccnc1NS(=O)(=O)c1ccc(N)cc1 — lower, -17.5%
- Cc1nc(Nc2cccc(C3CCCN3C(=O)C(C)(C)c3cccc(F)c3)n2)sc1C (configuration not stated) — higher, 6.07%
- COc1ccc2ccccc2c1/C=N/NS(=O)(=O)c1ccc(C)c([N+](=O)[O-])c1 — higher, -4.04%
- COc1cc(SC)ccc1C(=O)Nc1ccc(S(=O)(=O)Nc2nccc(C)n2)cc1 — higher, -5.96%
- NC1(C(=O)N2CCC(c3cccc(Nc4ncc(-c5ccccc5)s4)n3)CC2)CC1 — higher, -4.57%
- COCCC(=O)N1CCC(c2cccc(Nc3nc(C)c(C)s3)n2)CC1 — higher, 13.8%
- CCC(=O)Nc1ccc(S(=O)(=O)Nc2ccccn2)cc1 — higher, -0.4%
- O=C(/C=C/c1ccco1)N1CCC(c2cc3ccccc3c(Nc3nccs3)n2)CC1 — lower, -21.1%
- N#Cc1ccc(Oc2ccc(N3C(=O)c4ccc(Oc5ccccc5)cc4C3=O)cc2)cc1 — higher, -6.81%
- Cc1cnc(Nc2cccc(C3CN(C(=O)COc4cccc(F)c4)CCO3)n2)s1 (configuration not stated) — higher, -7.34%
- COc1ccc(-c2csc(Nc3ccc(S(=O)(=O)Nc4nc(C)cc(C)n4)cc3)n2)cc1OC — higher, 7.3%
- Cc1ccnc(Nc2nc(-c3sc(NC(=O)c4ccccc4)nc3C)cs2)c1 — higher, 68.2%
- O=C(CCc1[nH]nc2c1CCCC2)N1CCC(c2cccc(Nc3nccs3)n2)CC1 — lower, -25.4%
- CC(=O)N1CCCC1c1cccc(Nc2nccs2)n1 (configuration not stated) — higher, -7.53%
- NC(=O)CN1CCCCC1c1csc(Nc2ccccn2)n1 (configuration not stated) — higher, 8.38%
- COCCOCC(=O)Nc1ccc(S(=O)(=O)Nc2cc(C)nc(C)n2)cc1 — higher, -4.9%
- Cc1csc(Nc2cccc(C3CN(C(=O)CCc4nc(C)no4)CCO3)n2)n1 (configuration not stated) — higher, 4.72%
- CN(C)Cc1cnc(Nc2cccc(C3CCN(C(=O)C4CCCCC4)CC3)n2)s1 — higher, -4.62%
- CC(CC(=O)Nc1ccc(S(=O)(=O)Nc2ncccn2)cc1)c1ccccc1 (configuration not stated) — higher, 0.16%
- CCCc1cnc(Nc2cccc(C3CCN(C(=O)C4CCCCN4C(=O)CN(C)C)CC3)n2)s1 (configuration not stated) — higher, -3.09%
- O=C(C1COCCN1)N1CCC(c2cccc(Nc3ncc(Cl)s3)n2)CC1 (configuration not stated) — lower, -25.1%
- CC(=O)Nc1ccc(S(=O)(=O)Nc2cc(C)nc(C)n2)cc1 — higher, 2.38%
- Cc1csc(Nc2cccc(C3CCN(CC(=O)NCc4ccccn4)CC3)n2)n1 — lower, -13.2%
- Cc1ccc2[nH]nc(C(=O)N3CCCC3c3cccc(Nc4nc(C)cs4)n3)c2c1 (configuration not stated) — higher, 2.1%
- O=[N+]([O-])c1ccc(S(=O)(=O)Nc2ccc(Cl)cn2)cc1 — higher, 9.98%
- Cc1cnc(Nc2cccc(C3CN(C(=O)CN(CCC(C)C)c4ccccc4)CCO3)n2)s1 (configuration not stated) — higher, -0.69%
- CCOc1ccccc1OCC(=O)Nc1ccc(S(=O)(=O)Nc2ncccn2)cc1 — higher, 2.46%
- O=C(Nc1ccc(S(=O)(=O)Nc2ncccn2)cc1)c1ccccc1Br — higher, -0.83%
- Cc1cnc(Nc2cccc(CC3CCN(C(=O)CO)CC3)n2)s1 — lower, -16.1%
- Cn1cnc(S(=O)(=O)N2CCOC(c3cccc(Nc4ncc(CNC(=O)c5cccc(F)c5)s4)n3)C2)c1 (configuration not stated) — higher, 3.31%
- CN(CC(=O)N1CCC(c2cccc(Nc3ncc(-c4ccccc4)s3)n2)CC1)C(=O)OC(C)(C)C — lower, -10.1%
- CC(C)c1ccc2[nH]c3nc(SCC(=O)Nc4ccc(F)cc4)nnc3c2c1 — lower, -14.8%
- Cc1ccnc(NS(=O)(=O)c2ccc(N3C(=O)c4ccccc4C3=O)cc2)n1 — higher, -0.67%
- O=C(Nc1ccc(S(=O)(=O)Nc2ncccn2)cc1)c1ccccc1Oc1ccccc1 — higher, -7.12%
- COC1CCC(C(=O)N2CCC(c3cccc(Nc4ncc(C)s4)n3)CC2)CC1 (configuration not stated) — lower, -21.3%
- Cc1nc(Nc2cccc(C3CCN(C(=O)c4ccccn4)CC3)n2)sc1C — higher, 4.46%
- COc1cc(NS(=O)(=O)c2ccc(NC(=O)/C=C/C(=O)O)cc2)nc(OC)n1 — higher, 2.31%
- CCCc1cnc(Nc2cccc(C3CN(C(=O)Cn4c(CC(C)C)nc5ccccc54)CCO3)n2)s1 (configuration not stated) — lower, -20.3%
- Cc1csc(Nc2cccc(C3CCN(C(=O)Cn4nc(C)cc4C)CC3)n2)n1 — higher, 5.92%
- COc1cc(NS(=O)(=O)c2ccc(N/C=C\C(=O)c3cccs3)cc2)nc(OC)n1 — higher, -3.43%
- CCOC(=O)c1ccc(N2C(=O)c3ccc(Oc4ccc(NC(C)=O)cc4)cc3C2=O)cc1 — lower, -11%
- O=C(O)c1ccc(N2C(=O)c3ccc(Oc4ccccc4)cc3C2=O)cc1 — higher, 8.38%
- COc1cc(NS(=O)(=O)c2ccc(NC(=O)c3c(OC)cccc3OC)cc2)nc(OC)n1 — higher, -1.93%
- O=C(/C=C/c1cnc[nH]1)N1CCC(c2cc3ccccc3c(Nc3nccs3)n2)CC1 — lower, -23%
- COc1ccc(/C=C(\C#N)C(=O)Nc2ccc(S(=O)(=O)Nc3ncccn3)cc2)cc1 — higher, -1.25%
- COCC(=O)N1CCC(c2cccc(Nc3ncc(C)s3)n2)CC1 — lower, -25.6%
- O=C(Nc1ccc(S(=O)(=O)Nc2ccccn2)cc1)c1ccc(Cl)c(Cl)c1 — higher, -3.14%
- COc1nccnc1NS(=O)(=O)c1ccc(NC(=S)NC(=O)c2cccnc2)cc1 — higher, 2.58%
- Cc1cnc(Nc2cccc(C(CO)C3CCN(C(=O)C4CCCCC4)CC3)n2)s1 (configuration not stated) — higher, 0.31%
- Cc1csc(Nc2cccc(C3CCCN3C(=O)CO)n2)n1 (configuration not stated) — higher, 10.3%
- COc1cccc(OC)c1C(=O)N1CCOC(c2cccc(Nc3ncc(C)s3)n2)C1 (configuration not stated) — higher, -4.53%
- COCC(=O)N1CCC(c2cccc(Nc3nc(C)cs3)n2)CC1 — higher, 14%
- Cc1ccc2[nH]c3nc(SCC(=O)Nc4cc(Cl)ccc4C)nnc3c2c1 — higher, -6.45%
- CNC(=O)C1(c2cccc(Nc3ncc(C)s3)n2)CN(S(=O)(=O)c2cn(C)cn2)CCO1 (configuration not stated) — higher, -2.93%
- COC(=O)C(c1cccc(Nc2ncc(C)s2)n1)C1CCN(C(=O)C2(NC(=O)OC(C)(C)C)CCCCC2)CC1 (configuration not stated) — higher, 9.03%
- Cc1cc(C)nc(NS(=O)(=O)c2ccc(NC(=O)CSc3nc4c(cc3C#N)CCC4)cc2)n1 — higher, -5.81%
- COc1cccc(C(=O)Nc2ccc(S(=O)(=O)Nc3nc(C)cc(C)n3)cc2)c1 — higher, -0.82%
- CCC(CC)C(=O)Nc1ccc(S(=O)(=O)Nc2ncccn2)cc1 — higher, 2.05%
- Cn1cc(/C=C/C(=O)N2CCC(c3cc4ccccc4c(Nc4nccs4)n3)CC2)cn1 — lower, -25.6%
- Cc1ccc(Nc2nc(-c3sc(NC(=O)c4ccccc4)nc3C)cs2)nc1 — higher, 74.3%
- NCC(=O)N1CCC(c2cccc(Nc3ncc(Cl)s3)n2)CC1 — lower, -23.9%
- COc1cc(NS(=O)(=O)c2ccc(Nc3nc(-c4cccs4)cs3)cc2)nc(OC)n1 — higher, 1.07%
- Cc1ccn(CCC(=O)N2CCC(c3cccc(Nc4ncc(C)s4)n3)CC2)n1 — higher, 4.45%
- N#CCN1CCCC(c2cccc(Nc3nc(C(=O)N4CCNC(=O)C4)cs3)n2)C1 (configuration not stated) — higher, -2.35%
